Measurements reported in patent publication US20210221875A1 (Chugai, published 2021).
Changes are numbered by the printed parent chain. Each block holds one binder with its values, some of them ahead of it.

Experiments:
[1] = target: T1, soluble human IL-6R (human, UniProt P08887 20-357); test: BLI (Octet HTX), molecule on Protein A sensor, hsIL-6R as analyte, 30 C
T1 construct: also called hsIL-6R; recombinant human IL6R
T1 sequence: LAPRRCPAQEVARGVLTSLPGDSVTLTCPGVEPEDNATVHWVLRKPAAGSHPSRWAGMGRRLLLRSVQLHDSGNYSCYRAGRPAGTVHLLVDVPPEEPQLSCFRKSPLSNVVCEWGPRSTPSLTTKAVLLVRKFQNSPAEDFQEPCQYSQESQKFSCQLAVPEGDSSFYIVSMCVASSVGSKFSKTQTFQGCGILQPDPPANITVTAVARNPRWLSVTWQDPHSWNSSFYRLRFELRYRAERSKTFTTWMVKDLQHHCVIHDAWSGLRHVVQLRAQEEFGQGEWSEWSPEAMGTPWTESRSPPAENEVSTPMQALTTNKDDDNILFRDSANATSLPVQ

[2] = target: T2, hsIL-6R-BAP1 (human, UniProt P08887 20-357, biotin on the AviTag sequence (BirA co-expression)); test: BLI (Octet HTX), hsIL-6R-BAP1 on streptavidin sensor, protease-untreated sample, 30 C
T2 construct: hsIL-6R linked through a linker to a C-terminal AviTag; also called hsIL-6R-Avitag; biotinylated soluble human IL6R
T2 sequence: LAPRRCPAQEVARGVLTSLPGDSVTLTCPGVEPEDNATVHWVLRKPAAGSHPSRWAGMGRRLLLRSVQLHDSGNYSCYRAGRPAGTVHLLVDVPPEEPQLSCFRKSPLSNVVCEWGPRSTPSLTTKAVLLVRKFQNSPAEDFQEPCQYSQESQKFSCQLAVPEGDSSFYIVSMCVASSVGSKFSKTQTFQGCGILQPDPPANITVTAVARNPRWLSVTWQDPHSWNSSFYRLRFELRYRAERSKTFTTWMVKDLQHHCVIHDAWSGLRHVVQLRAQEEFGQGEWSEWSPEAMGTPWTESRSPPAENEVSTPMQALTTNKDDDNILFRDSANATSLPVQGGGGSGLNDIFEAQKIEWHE

[3] = target: T3, biotinylated plexin A1 (human, UniProt Q9UIW2 27-1253, biotin on the AviTag sequence (BirA co-expression)); test: BLI (Octet), in the same way as in Example 3
T3 construct: extracellular region of plexin A1 linked to AviTag and FLAG tag; also called biotin-labeled human plexin A1; human plexin A1

B1: IL6R90-G1m/VK1-39-k0MT (antibody, human IgG1, kappa)
heavy: EVQLVESGGGLVQPGGSLRLSCAASGFTFDDYGMSWVRQAPGKALEWVSAISWNGNNTYYTESMKGRFTISRDNAKNTLYLQMNSLRPEDTAVYYCVKGSTAIVGVPPTYPDEYDYWGQGTLVTVSS[left out - human IgG1 constant region]
light: DIQMTQSPSSLSASVGDRVTITCRASQSISSYLNWYQQKPGKAPKLLIYAASSLQSGVPSRFSGSGSGTDFTLTISSLQPEDFATYYCLQFDSYPLTFGGGTKVEIKRTVAAPSVFIFPPSDEQLKSGTASVVCLLNNFYPREAKVQWKVDNALQSGNSQESVTEQDSKDSTYSLSSTLTLSKADYEKHKVYACEVTHQGLSSPVTKSFNRGEC
notes: IgG antibody-like molecule: anti-human IL6R VHH IL6R90 fused with human IgG1 CH1-hinge-CH2-CH3, with a human germline light chain
- binding result [1]: no binding

B2: IL6R90H1005/VK1-39-k0MT (antibody, human IgG1, kappa)
heavy: EVQLVESGGGLVQPGGSLRLSCAASGFTFDDYGMSWVRQAPGKALEWVSAISWNGNNTYYTESMKGRFTISRDNAKNTLYLQMNSLRPEDTAVYYCVKGSTAIVGVPPTYPDEYDYWGQGTLVTVSSASTKLSGRSDNHGGPSVFPLAPSSKSTSGGTAALGCLVKDYFPEPVTVSWNSGALTSGVHTFPAVLQSSGLYSLSSVVTVPSSSLGTQTYICNVNHKPSNTKVDKKV[left out - human IgG1 Fc]
light: B1 light
- binding result [2]: no binding

B3: IL6R90H1006/VK1-39-k0MT (antibody, human IgG1, kappa)
heavy: EVQLVESGGGLVQPGGSLRLSCAASGFTFDDYGMSWVRQAPGKALEWVSAISWNGNNTYYTESMKGRFTISRDNAKNTLYLQMNSLRPEDTAVYYCVKGSTAIVGVPPTYPDEYDYWGQGTLVTVSSASTKSGGSGLSGRSDNHGSSGGGPSVFPLAPSSKSTSGGTAALGCLVKDYFPEPVTVSWNSGALTSGVHTFPAVLQSSGLYSLSSVVTVPSSSLGTQTYICNVNHKPSNTKVDKKV[left out - human IgG1 Fc]
light: B1 light
- binding result [2]: no binding

B5: IL6R90H1004/VK1-39-k0MT (antibody, human IgG1, kappa)
heavy: EVQLVESGGGLVQPGGSLRLSCAASGFTFDDYGMSWVRQAPGKALEWVSAISWNGNNTYYTESMKGRFTISRDNAKNTLYLQMNSLRPEDTAVYYCVKGSTAIVGVPPTYPDEYDYWGQGTLVTVSGGSGLSGRSDNHGSSGGSS[left out - human IgG1 constant region]
light: B1 light
- binding result [2]: no binding

B7: PX02-R2_001-G1mISHI01/VK1-39-k0MT (antibody, human IgG1, kappa)
heavy: QLQLVESGGGLVQPGGSLRLSCTASGISFSISTMGWYRQAPGKQRELVATITSGGEAYYANSMKDRFTISRDNAENTVYLQMNRLKPEDSAVYYCNTKFPWSTDWDSRGQGTQVTVSGGSGLSGRSDNHGSSGGSS[left out - human IgG1 constant region]
light: B1 light
notes: uncleaved IgG antibody-like molecule with anti-human plexin A1 VHH in place of VH
- binding result [3]: no binding

The next lines start with the values.

- binding result [2]: no binding
B4: IL6R90H1002/VK1-39-k0MT (antibody, human IgG1, kappa)
heavy: EVQLVESGGGLVQPGGSLRLSCAASGFTFDDYGMSWVRQAPGKALEWVSAISWNGNNTYYTESMKGRFTISRDNAKNTLYLQMNSLRPEDTAVYYCVKGSTAIVGVPPTYPDEYDYWGQGTLVTVSSASSGGSGLSGRSDNHGSSGGTKGPSVFPLAPSSKSTSGGTAALGCLVKDYFPEPVTVSWNSGALTSGVHTFPAVLQSSGLYSLSSVVTVPSSSLGTQTYICNVNHKPSNTKVDKKV[left out - human IgG1 Fc]
light: B1 light

- binding result [3]: no binding
B6: PX02-R4_004-G1mISHI01/VK1-39-k0MT (antibody, human IgG1, kappa)
heavy: B7 heavy with L2V
light: B1 light
notes: uncleaved; light chain printed once for the five molecules
